Data taken from the supplement of paper PMC11417369.
The list shows a part of the results.

Tested on: PfAP2-HC AP2 domain (GST-tagged)
Test: gcPBM binding intensity (ln(normalized median fluorescence intensity)); higher = stronger DNA binding
Procedure, shortened: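 An Agilent 4 × 180k array carrying primer-extended double-stranded 36-bp intergenic genomic probes and negative controls received GST-tagged P. falciparum DNA-binding domains expressed in E. coli, about 25 μg on average, for 1 h. The binding buffer contained 1× PBS, 1% milk, 0.2 mg/ml BSA, 0.5% salmon testes DNA and 0.03% Triton X-100. Binding intensity is the top Masliner-normalised natural-log median intensity across replicate spots of either probe orientation, read after Alexa488 anti-GST antibody staining and a 488 nm scan.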

| Sequence | gcPBM binding intensity (ln) |
| --- | --- |
| AACATATACACGAACACACACACATATATATATATA [CACACA_site502] | 11.6 |
| AAAACAAATGAGTACACACACATAAAAATTGAAAAT [CACACA_site199] | 10.2 |
| TAAAGAAAAAAATGTTGTACTTTATGAAACATATTT [XGTACX_site412] | 9.46 |
| ATATTTACCATTGTATGTACATATATAAAATATATC [XGTACX_site3237] | 9.69 |
| GTATATATATATATATGTACATATTTAGAGTTCTGT [XGTACX_site5357] | 9.67 |
| TTTATTTTCATATGAACACACATATATATATTATAA [CACACA_site2369] | 9.94 |
| TGTTCTGAACGGTTCATGCACTTTTTTTTGTTAATT | 9.65 |
| CTGTTTTTGTTTTAAAGTACATTGTTCAATATACAT [XGTACX_site5288] | 9.8 |
| TACAATGTGGATAATTGTACAAAACCGATAAGAGGG [XGTACX_site6453] | 9.89 |
| TATATTCTACAAGAATTATGAATTGTCAGACCAAAT [CACACA_negctrl_site1101] | 9.34 |
| TTATATACCCTAATATGTTTTATTATTATTATATAT [TGCATGCA_negctrl_site6] | 9.77 |
| ATATAAATAATATAAATACACACTAAAAAAAATATA [CACACA_site542] | 9.84 |
| TAAACCTTAAAATATTTCTCATGTTTAACTTATATT [GTGCAC_negctrl_site233] | 9.56 |
| AAGAAAAACTTTACGTGTACCAAACATCCTGCCGAC [XGTACX_site4895] | 9.83 |
| GTATTCTACAGACACATACACACATATATATATATA [CACACA_site3427] | 10 |
| AAAAAATAATTGAAGTGTACGTACAATGATTTTACT [XGTACX_site7663] | 9.87 |
| GGGAGAAATTTATACATACACACATATATATATTAT [CACACA_site4039] | 9.92 |
| TTATAATATTGTGGTATACACACCTTACAAAAAGGT [CACACA_site2878] | 9.78 |
| TTATAAAAAAAAAAAAAAAATATATATATATATATA [XGTACX_negctrl_site592] | 9.13 |

| Sequence | gcPBM binding intensity (ln) |
| --- | --- |
| AAAAAATAATAATAAAATGAATAGATATGTATTTAT [TGCATGCA_negctrl_site210] | 9.75 |
| AATAATATATATTGTACACACAAAATGGGAAAAAAA [CACACA_site5100] | 10 |
| ATATATATATATATTTGTACAGAAAATATTTTAATA [XGTACX_site3706] | 9.64 |
| AACATATTATCTTGTGAAAATAATATAAGTCACATT [TGCATGCA_negctrl_site339] | 9.7 |
| AGCAGAGTTACAATTTGTACGTAATTGATATAGATA [XGTACX_site4051] | 9.62 |
| ACAAAATGTAAATAAACACACATATATATATATATA [CACACA_site1281] | 9.85 |
| ATAATTTATATTCAGAAACACACGAAAAAAAAAAAT [CACACA_site1296] | 9.77 |
| AACTAAACAAAAGTTACACACATCATACGATATTAT [CACACA_site3180] | 9.81 |
| TATATTATATACGTCTGTACACAAATGAGAGGTAAA [XGTACX_site5538] | 9.68 |
| ACCATATAATTTTTTTGTACATAATGATTTTTTTTT [XGTACX_site1104] | 9.78 |
| ATGTTAAGAATAATTAGTACTTACATATGTATAATA [XGTACX_site4419] | 9.54 |
| TAAATATTTTATTGTACACACTTTTTATGAATGATG [CACACA_site5694] | 9.73 |
| ATATCCCATATGTAATGTACTTACACTTTCTTAATT [XGTACX_site7020] | 9.87 |
| AATATTTAAAACAAATCACACATGTATCCATAAATG [CACACA_site5308] | 9.67 |
| ACATAAAATAAATATACACACATATGTATATATTAT [CACACA_site3041] | 9.9 |
| ATAAAATATATATGCACACACATATATATTTCATAC [CACACA_site3547] | 10.2 |
| ATATATATATATATGTGTACTTATAAATATATCTGT [XGTACX_site4337] | 9.68 |
| AAAAGAATTTAGAAGGCATGCACTTAAACATGGATA [TGCATGCA_site699] | 10.1 |
| ATATTTATATATATATGTACATATGTGTGTTTTTAT [XGTACX_site3956] | 9.91 |

| Sequence | gcPBM binding intensity (ln) |
| --- | --- |
| AAAAAAATAATGTACACACACATATCTGTTTATATA [CACACA_site4270] | 10.4 |
| ATATATAACTTTTCTTAACACACAAAAAACAAAAAT [CACACA_site8748] | 9.79 |
| TCATAAACATTATGCACACAAAAATAAAAAAAAATA [CACACA_site1115] | 10 |
| AGGGAATAATATTAATGTACATATATGAACTTGTTT [XGTACX_site6089] | 9.68 |
| TATAAAAAGGAAAAATAAAAATAAAAATAAAAATTA [CACACA_negctrl_site1822] | 9.44 |
| TCTTTTAAAAATTAAGTGCATGTCCTTATAACAAAA | 9.32 |
| AAAAAAAATTAGGAAACATGCATGTCCCGATAAATA [TGCATGCA_site149] | 9.74 |
| AGATATATTATTAGGTGTACTATAAAATAAATTCAC [XGTACX_site221] | 9.59 |
| CGAACAAACAAATAAACACACAAAAAAAGATATATA [CACACA_site6944] | 9.92 |
| AAAATCAAGTAGTATAAAGTAAGTATCATAAAAATA [CACACA_negctrl_site1554] | 9.73 |
| GTACACTAATTATGTGCACACAAATTAAAGGTCTAC [CACACA_site146] | 10.3 |
| ATAATAAAATGGAGAGTGCATACATGTTTATTTTAT | 9.82 |
| TGTAGTTTGTCCCATGCATGTTCCATTAAAATATAT [TGCATGCA_site854] | 9.85 |
| TTAACGTAAAATATAGTGCATAGTATCATATTGATA [GTGCAC_site9527] | 9.78 |
| CAATCAAAGAAACACACACACACCTAAACATAAAAG [CACACA_site2756] | 11.7 |
| AATGTATATATGTAATGTACATATATAATGTATATA [XGTACX_site6510] | 9.79 |
| TTACTCATGAAAGATACACACATTCATTATATATAT [CACACA_site3252] | 9.88 |
| TATATAAACCCGTACACACACATATATGTATATATA [CACACA_site3507] | 10.3 |
| AAATTTACAATACATTGTACATATTAATAATATTCC [XGTACX_site3646] | 9.49 |
